# Test results from PubChem BioAssay AID488969 (Vanderbilt High Throughput Screening Facility, 2010).
# Over roughly 110,000 compounds, “z-score” has its median near -0.1; the highest 2% begin near 2. The list shows a part of the results.
# Target: Metabotropic glutamate receptor 8 (Rattus norvegicus) (UniProt P70579)
# Test: mGluR8 Gi/Go-coupled signaling modulation – cell-based, rat, thallium flux, HTS, primary screen (AID 488969)
# Settings: HEK293 rat mGluR8, GIRK (G protein-gated inwardly rectifying potassium channel) thallium flux, FluoZin2; at 10 µM; stronger effect = higher value; submaximal glutamate (EC20) added with thallium
# Sequence of UniProt P70579 (P70579 whole entry, looked up): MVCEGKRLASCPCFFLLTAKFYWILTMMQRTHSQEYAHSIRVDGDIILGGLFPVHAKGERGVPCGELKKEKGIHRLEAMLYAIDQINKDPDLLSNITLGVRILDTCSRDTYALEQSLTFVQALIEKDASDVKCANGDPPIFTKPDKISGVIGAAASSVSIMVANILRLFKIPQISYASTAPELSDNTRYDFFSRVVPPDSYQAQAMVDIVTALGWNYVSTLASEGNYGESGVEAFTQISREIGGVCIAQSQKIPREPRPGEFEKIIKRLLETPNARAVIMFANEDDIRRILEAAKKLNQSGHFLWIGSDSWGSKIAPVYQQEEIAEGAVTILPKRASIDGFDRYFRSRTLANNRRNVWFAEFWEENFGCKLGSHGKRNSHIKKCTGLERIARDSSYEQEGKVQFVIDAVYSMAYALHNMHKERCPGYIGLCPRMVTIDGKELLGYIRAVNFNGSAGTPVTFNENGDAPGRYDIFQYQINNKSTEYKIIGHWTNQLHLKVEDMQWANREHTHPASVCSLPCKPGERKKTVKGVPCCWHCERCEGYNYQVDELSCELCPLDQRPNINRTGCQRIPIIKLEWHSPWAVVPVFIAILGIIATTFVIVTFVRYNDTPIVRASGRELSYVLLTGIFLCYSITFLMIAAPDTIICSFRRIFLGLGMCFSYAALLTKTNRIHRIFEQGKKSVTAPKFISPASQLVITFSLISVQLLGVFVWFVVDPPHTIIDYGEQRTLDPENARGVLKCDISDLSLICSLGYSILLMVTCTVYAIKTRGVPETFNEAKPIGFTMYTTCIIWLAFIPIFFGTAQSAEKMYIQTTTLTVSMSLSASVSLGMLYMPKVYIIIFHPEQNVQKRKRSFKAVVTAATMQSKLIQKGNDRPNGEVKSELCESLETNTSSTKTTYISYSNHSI
row,Compound,z-score
1,Cn1c(=O)c2c(nc(NCc3ccco3)n2C)n(C)c1=O,-0.268
2,CCOC(=O)c1ccc2c(c1)nc(-c1ccc(F)cc1)c1nccn12,-0.0773
3,COc1ccccc1C(=O)NCCn1cc(SCC(=O)Nc2cc(C)on2)c2ccccc21,-0.181
4,Nc1cccc2nc3ccccc3cc12,0.335
5,CCc1nc2ccccc2c(C(=O)OCC(=O)Nc2cccc(S(=O)(=O)N3CCOCC3)c2)c1C,-1.75
6,Cc1nc2[nH]c(=S)[nH]c2cc1Br,0.114
7,Cc1nn(CC(=O)c2ccc(Cl)cc2Cl)c(C)[n+]1N,0.0687
8,Cc1cc(C)c2c(CC(=O)Nc3ccc(Cl)cn3)coc2c1,-0.0231
9,Cc1ccc(S(=O)(=O)NC(CC(C)C)C(=O)NCc2ccco2)cc1 (stereo not drawn),0.0163
10,Cc1cc(=O)[nH]c(SCc2nc3ncccn3c2Br)n1,0.27
11,Cc1c(C)n(C)c2ccc(C(=O)Nc3cccc4ccccc34)cc12,0.368
12,O=C(NCCNc1cc(Cl)ccc1[N+](=O)[O-])c1ccco1,-1.06
13,Cc1cc(C)nc(-n2nc(C)cc2NC(=O)CNCc2ccccc2)n1,-0.571
14,CC(NC(=O)Cn1ncc(Cl)c(Cl)c1=O)C12CC3CC(CC(C3)C1)C2 (stereo not drawn),-0.204
15,CCN(c1ccc(NC(=O)CSc2nnc3nc(C)cc(C)n23)cc1)C(C)C,-0.565
16,CC(C)c1nc(NCc2ccccc2)c(C#N)c2c1CCCC2,-0.133
17,Cc1c(C(=O)NCCCc2ccccc2)cccc1[N+](=O)[O-],-0.434
18,c1ccc(-c2csc(Cc3nnc4n3CCCCC4)n2)cc1,0.197
19,Cc1cccc(Cn2cnc3c(nnn3Cc3ccc(F)cc3)c2=O)c1,0.12
20,Cc1ccc(-n2ncc(C#N)c2/N=C/N2CCOCC2)cc1,-0.432
21,Cn1c(CN2CCCC2)nc2cc(NC(=O)COc3ccccc3)ccc21,0.0972
22,CCSc1nc2ccccc2n1Cc1cccc([N+](=O)[O-])c1,-0.287

row,Compound,z-score
1,COCCN1C(=O)C(CC(=O)Nc2ccc(C(C)=O)cc2)SC1=Nc1ccccc1 (stereo not drawn),-0.776
2,Cn1c(=O)c2c(nc(NCC3CCCO3)n2Cc2ccccc2)n(C)c1=O (stereo not drawn),0.0853
3,CCCOc1ccc(N2C(=O)CC(N3CCCC(C(=O)N4CCCC4)C3)C2=O)cc1 (stereo not drawn),0.778
4,O=C(c1ccc2c(c1)OCO2)N1CCN(C(=O)c2ccco2)CC1,-0.43
5,COc1ccccc1/C=C/C(=O)NC(=S)Nc1ccc(S(=O)(=O)N(C)c2ccccc2)cc1,0.119
6,Cc1nnc(NC(=O)C2(c3ccccc3)CCOCC2)s1,-0.218
7,C(=N\N1CCN(C2c3ccccc3-c3ccccc32)CC1)/c1ccccn1,-0.243
8,O=C(Oc1cccc2cccnc12)c1ccc(N2C(=O)C3C4CCC(C4)C3C2=O)cc1 (stereo not drawn),-0.0588
9,CNCc1ccccc1Sc1cccc2ccccc12,1.05
10,COc1ccccc1NC(=O)CC(NCc1ccccc1)C(=O)O (stereo not drawn),1.75
11,Cc1nc2c3cnn(-c4ccc(C)c(C)c4)c3ncn2n1,-0.107
12,Cc1cc(C)cc(OC(=O)CS(=O)c2ccc(C(F)(F)F)cc2[N+](=O)[O-])c1 (stereo not drawn),-0.247
13,CCC(OC(=O)CCc1nc2ccccc2[nH]c1=O)C(=O)c1ccccc1 (stereo not drawn),-0.269
14,Cc1nc2c(sc3nc4c(cc32)COC(C)(C)C4)c(=O)n1CC(=O)NCc1ccco1,-0.124
15,O=C(/C=C/c1ccc(Cl)cc1)Nc1ccc(CN2CCOCC2)cc1,-0.0212
16,COc1ccc(/C=C(/C(=O)Nc2ccccc2C(=O)NC(C)C)c2ccccc2)cc1,-0.486
17,CSc1ccccc1C(=O)Nc1cccc(C(C)O)c1 (stereo not drawn),0.209
18,COc1ccc(NS(=O)(=O)c2cc([N+](=O)[O-])ccc2N/N=C\c2c(C)[nH]c3ccccc23)cc1,0.0262
19,Cc1ccc(NC(=O)CO/N=C(\N)c2nonc2N)cc1C,-0.037
20,Cc1nn(C)c(Cl)c1NC(=O)OCc1ccc(F)cc1,-0.0466
21,O=C(C1CCCN(S(=O)(=O)c2cccc3nsnc23)C1)N1CCc2ccccc21 (stereo not drawn),-0.196
22,CCn1c(C)nc2cc(C(=O)N/N=C/c3ccc(OC)c(O)c3)ccc21,0.135

row,Compound,z-score
1,COc1ccc(OCC(=O)Nc2ccc3c(c2)nc2n3CCSC2)cc1,-0.24
2,O=C(O)CCNS(=O)(=O)c1ccc2c(c1)Cc1ccccc1-2,-0.564
3,CCC(=O)NCCC(c1ccco1)c1ccccc1OC (stereo not drawn),-0.0301
4,O=[N+]([O-])c1ccc(Oc2ccc(F)cc2Br)c2ccncc12,-0.634
5,Cc1ccc(C(=O)NN2C(=O)C3C4c5ccccc5C(c5ccccc54)[C@@H]3C2=O)cc1 (stereo partly drawn),0.199
6,CNc1cc([N+](=O)[O-])ccc1N/C=C/C(=O)c1ccc2c(c1)OCO2,0.169
7,O=C(Cn1c(=S)nc2ccccn21)N1CCc2ccccc2C1,-0.216
8,Cc1ccc2[nH]c3c(=O)n(CCN4CCOCC4)cnc3c2c1,0.0978
9,CCn1nc(C)c(/C=N/NC(=O)c2ccoc2C)c1C,-0.358
10,O=C(CC1Nc2ccccc2NC1=O)NCc1cccnc1 (stereo not drawn),0.517
11,CCC(C)NC(=O)Cc1cn(C)c2ccccc12 (stereo not drawn),-0.269
12,O=c1c2ccccc2c(C=Nc2ccc(Cl)cn2)c(O)n1-c1cc(Cl)ccc1N1CCOCC1,-0.0753
13,CCCCC(=O)Nc1cc([N+](=O)[O-])ccc1Cl,-0.0694
14,O=C(CN1C(=O)C2C3C=CC(C3)C2C1=O)Nc1nc(-c2ccccn2)cs1 (stereo not drawn),-0.0039
15,CN(C)CCCNC(=O)c1cc(S(=O)(=O)N2CCOCC2)ccc1F,0.00737
16,O=C1N(c2ccccc2)C2CS(=O)(=O)CC2N1c1ccc(Br)cc1 (stereo not drawn),0.00782
17,COc1ccc2nc(Nc3nc4cc5c(cc4s3)OCO5)sc2c1,0.175
18,COc1ccc(C(=O)Nc2nc3nccc(-c4ccccc4)n3n2)cc1,-0.428
19,C/C(=N\NC(=O)c1ccc(CN(C)S(=O)(=O)c2ccc(C)cc2)cc1)c1ccc(OC(F)F)cc1,-0.0384
20,Cc1noc(C)c1COc1ccc(C(=O)OCC(=O)Nc2cccc(S(=O)(=O)N3CCOCC3)c2)cc1,-0.17
21,COc1ccc(S(=O)(=O)N2CC(C(=O)O)Oc3ccc(CC(=O)O)cc32)cc1 (stereo not drawn),-0.188
22,O=C(CSc1nnc(-c2ccccc2)n1C1CCCCC1)Nc1ccc(S(=O)(=O)Nc2ccccn2)cc1,-1.32

row,Compound,z-score
1,CCC(=O)Nc1cc2c(C)cc(=O)oc2cc1C,-0.152
2,COC(=O)Cc1cc(=O)n(-c2nc3ccccc3[nH]2)[nH]1,-0.535
3,CCOC(=O)/C=C1\SCC(=O)N1CC(=O)NC(C)c1ccc(F)cc1 (stereo not drawn),-0.447
4,COc1ccc(NC(=S)NCc2ccco2)cc1,-0.0213
5,C(#CCN1CCOCC1)COCCCOC(c1ccccc1)c1ccccc1,-0.141
6,Clc1ccc(-c2nnc(CSc3nnc(-c4cccs4)o3)o2)cc1,-0.515
7,O=C(NC1CCCCC1)c1ccccc1NC(=O)C1CC(=O)N(c2ccccc2)C1 (stereo not drawn),-0.541
8,Cn1c(=O)cc(N2CCCCC2)[nH]c1=O,0.00323
9,O=C(O)C1Nc2c(O)cccc2C2C=CCC12 (stereo not drawn),0.906
10,CCOc1ccc(N2CC(C(=O)N3CCc4ccccc4C3)CC2=O)cc1 (stereo not drawn),-0.119
11,NC(=O)C1(N2CCCCC2)CCN(C2CC(=O)N(CCc3ccccc3)C2=O)CC1 (stereo not drawn),-0.162
12,Cc1cccc(N2CCN(C(c3ccccc3)c3nnnn3C(C)(C)C)CC2)c1C (stereo not drawn),-0.194
13,Cc1ccccc1Cn1c([N+](=O)[O-])cnc1C,-0.383
14,CCOC(=O)/C(C#N)=C\c1ccc2c(c1)OCO2,-0.308
15,CCOc1ccc(C(C)(C)C)cc1S(=O)(=O)n1nc(C)cc1C,-0.716
16,O=C(NN=C1CCCCCC1)NC1CCCCC1,-0.019
17,COc1ccc(CN(C(=O)/C=C/C(=O)c2ccc(OC)cc2O)C(C(=O)NC2CCCCC2)c2ccncc2)cc1 (stereo not drawn),-0.182
18,COCc1nnc(NS(=O)(=O)c2ccc(Br)cc2)s1,-0.387
19,CC(=O)Nc1ccc(OC(=O)c2c(-c3ccccc3Cl)noc2C)cc1,-0.313
20,Cc1ccc(C(=O)C(C)Oc2cccc(NC(=O)c3ccco3)c2)cc1 (stereo not drawn),-1.92
21,O=C(Nc1nnc(CSCc2ccccc2F)s1)c1cccc([N+](=O)[O-])c1,0.24
22,O=S(=O)(CCc1nc2ccccc2s1)c1ccc(Cl)cc1,-0.394

row,Compound,z-score
1,CCn1c(SCc2nc3sc(C(=O)O)c(C)c3c(=O)[nH]2)nc2ccccc21,-0.449
2,O=C(NC1CCCCC1)N1CCN(Cc2nc3ccccc3c(=O)[nH]2)CC1,0.235
3,COc1ccc(OC)c(NC(=O)C2CCC(CNc3c(N4CCC(C)CC4)c(=O)c3=O)CC2)c1 (stereo not drawn),-0.749
4,Cc1ccc(-c2nnc(SCC(=O)N/N=C/c3ccc(C)s3)n2-c2ccc(C)cc2)cc1,-0.0175
5,CCOC(=O)c1cccc(NC2c3ccccc3C(=O)N2Cc2ccco2)c1 (stereo not drawn),-0.749
6,CC(=O)CC1(O)C(=O)N(Cc2ccccc2)c2ccccc21 (stereo not drawn),0.034
7,CCCCCNC(=O)c1ccc2c(=O)n(CCOC)c(=O)[nH]c2c1,0.336
8,COC(=O)C1=C(N)Oc2cc(C)n(Cc3ccco3)c(=O)c2C1c1cccc(Cl)c1 (stereo not drawn),0.443
9,O=C(Cn1cnc([N+](=O)[O-])n1)NCc1ccccc1,0.217
10,CCCN1C(=O)/C(=C/c2c(NCCCOC(C)C)nc3c(C)cccn3c2=O)SC1=S,0.133
11,Cc1cc(F)ccc1NCc1cc2c(cc1[N+](=O)[O-])OCO2,-0.139
12,Cn1c2c(c(=O)n(C)c1=O)CN(CCc1ccccc1)CN2,-0.0887
13,C=CCN1C(=O)C(Cc2ccc(Br)cc2)S/C1=N\N=C\c1ccco1 (stereo not drawn),-0.00121
14,COc1ccc(CC(=O)NC(C)c2nnc(SCC(=O)c3ccc(Br)cc3)n2C)cc1 (stereo not drawn),-0.222
15,Cc1ccc(-n2c(=O)[nH]cc(C(=O)Nc3ccc4c(c3)OCCO4)c2=O)cc1,0.249
16,CC(=O)Nc1ccc(OCC(O)CN2CCCCC2C)cc1 (stereo not drawn),-0.276
17,N#C/C(=C/c1ccc(Br)o1)C(N)=O,-0.516
18,O=C(Oc1ccccc1/C=C\C(=O)c1cc2ccccc2o1)c1cccc(F)c1,1.04
19,N#Cc1c(N2CCOCC2)nc(N2CCCCC2)c2c1CCN(C1CCCCC1)C2,-0.913
20,COc1ccc(CCNS(=O)(=O)c2ccc3c(c2)CCN3C(=O)C2CC2)cc1OC,-0.0638
